Experimental data published in the supplement of paper PMC4166925.
± gives the standard deviation of the averaged measurements. The full ranking holds about 33,000 sequences; the median of “E-score (dimensionless, -0.5 to 0.5)” is about -0.049, and the highest 2% start at about 0.37. The list shows a part of the results.

System: T1, PmTbr T-box DNA-binding domain (GST fusion)
T1 sequence: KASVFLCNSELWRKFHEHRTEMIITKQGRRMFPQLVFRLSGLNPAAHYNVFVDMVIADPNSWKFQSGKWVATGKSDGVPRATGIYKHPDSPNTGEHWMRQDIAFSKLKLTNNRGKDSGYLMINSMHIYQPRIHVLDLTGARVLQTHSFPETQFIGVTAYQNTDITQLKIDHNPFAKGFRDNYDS
Assay: PBM E-score of 8-mer (E-score (dimensionless, -0.5 to 0.5)); Tbr is Tbrain of the sea star Patiria miniata (Pm) or the sea urchin Strongylocentrotus purpuratus (Sp); higher = stronger binding preference; most listed sequences are background and not binding sites
Details: the construct has about 5 more residues each side
Procedure, shortened: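 Primer extension turned Universal Agilent oligonucleotide arrays double-stranded. They were incubated with 200 nM protein in PBS (pH 7.5); the protein was a GST-fused Tbr T-box DNA-binding domain expressed in BL21 E. coli at 20 °C and purified on glutathione. Every ungapped 8-mer was scored from the scanned, quantified probe intensities, and the Universal PBM Analysis Suite gave each an enrichment E-score averaged over duplicate arrays.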

Sequence	PBM E-score of 8-mer
CGATAGAG	-0.0781 ± 0.011
ATTCCAAA	-0.126 ± 0.05
AAACATAG	-0.0796 ± 0.034
ACTTCTAG	0.134 ± 0.019
AAGTGCGG	0.247 ± 0.0065
CCATTGTC	0.0521 ± 0.011
ACATGTTC	0.0421 ± 0.079
GCCAGTAA	0.159 ± 0.046
ACAATAGA	-0.139 ± 0.04
ATTGGGGG	-0.047 ± 0.012
AGCCGTAG	-0.272 ± 0.016
AGCCAACG	0.00609 ± 0.044
CAGAACAA	-0.164 ± 0.13
CCTCGAGC	-0.0327 ± 0.096
AGCGAACT	0.111 ± 0.03
GACATATC	-0.02 ± 0.011
CCCAGGAG	-0.147 ± 0.0049
CCAGGGCA	-0.238 ± 0.043
AGTACTTA	-0.0483 ± 0.016
ATAAGGTC	-0.146 ± 0.021
ACGGGATA	-0.0244 ± 0.035
GCAACTTA	0.0607 ± 0.0022
CCCTCGAA	-0.0611 ± 0.012
CATAGCCG	-0.212 ± 0.068
GTGCTAAA	0.435 ± 0.007

Sequence	PBM E-score of 8-mer
ACCACTAC	-0.202 ± 0.026
TCGGAAAA	-0.118 ± 0.1
AATGACCA	-0.276 ± 0.035
CGTGCACA	0.0991 ± 0.031
AGTTCGAC	-0.102 ± 0.014
ATGCATTC	-0.218 ± 0.024
GCTCCGCA	-0.0597 ± 0.027
ATAGGGCA	-0.249 ± 0.048
CCATACCG	-0.127 ± 0.026
AACAGCAT	-0.0226 ± 0.048
GACCGTCA	0.145 ± 0.016
GCATGACC	-0.127 ± 0.045
AGTACCTA	-0.0943 ± 0.082
TATGAATA	-0.183 ± 0.043
AGTTAACA	0.334 ± 0.013
GTAAACAC	0.278 ± 0.0036
CACTTTCA	0.312 ± 0.013
GCCGGGAC	-0.201 ± 0.054
GACGCCGA	0.124 ± 0.032
CCACCAGC	-0.164 ± 0.089
AGGAGCGG	-0.197 ± 0.0049
AAGGCCAC	-0.125 ± 0.026
GGAGGTAC	-0.298 ± 0.088
ATGCCACA	-0.0134 ± 0.0099
CCCCATTC	-0.114 ± 0.021

Sequence	PBM E-score of 8-mer
CGAGTTCC	-0.159 ± 0.039
TAATCATA	-0.2035 ± 0.0014
GAAACTGC	-0.0506 ± 0.011
CGAATTAC	-0.0757 ± 0.082
GCCCGCTA	0.00318 ± 0.07
TGATGACA	0.236 ± 0.028
TCCCGCGA	0.208 ± 0.011
CGCCGTAG	-0.118 ± 0.0022
CAAAACTC	0.0108 ± 0.045
GGCGAACC	-0.17 ± 0.042
ACTTATGC	-0.128 ± 0.028
GAGATATC	0.105 ± 0.073
CGATACAA	-0.192 ± 0.076
AGAGAGCA	-0.179 ± 0.096
ACCAATAC	0.0422 ± 0.027
TTAACAAA	0.0835 ± 0.071
GCGTCGCA	0.121 ± 0.0043
CACAAATA	0.018 ± 0.018
CGGGTCCA	-0.0138 ± 0.1
CCGCGCGG	-0.096 ± 0.013
AGGGTGCG	0.356 ± 0.052
ACAATACA	0.0805 ± 0.032
CAGGCGCC	0.261 ± 0.031
GCCATAAC	0.118 ± 0.0071
AAGCGCAC	0.0383 ± 0.021

Sequence	PBM E-score of 8-mer
CTTGATAC	-0.133 ± 0.057
GGACACCA	0.0777 ± 0.029
GAGCACTC	-0.232 ± 0.038
ATGTTAAG	-0.159 ± 0.049
GGTCTGGA	-0.223 ± 0.084
ACGAGCTA	-0.101 ± 0.0022
GAAATCCC	-0.103 ± 0.044
CCTAAAAC	-0.00751 ± 0.035
CTTCCACA	0.151 ± 0.069
ATCGCCAC	0.226 ± 0.015
AGGATTAC	-0.191 ± 0.055
TACTCATA	-0.0296 ± 0.03
AACGAAAC	0.0697 ± 0.048
GGCGTCAC	0.355 ± 0.026
GGGCCCTA	-0.334 ± 0.01
AAACTTTG	-0.0931 ± 0.07
AACATCTC	0.198 ± 0.0056
GTAACCTA	-0.165 ± 0.026
GCTCCAAC	0.0343 ± 0.0028
ACGATCAG	-0.0946 ± 0.0096
TGAAAGCA	0.0923 ± 0.034
CTGAGCCA	0.00229 ± 0.066
CCCAGAAG	0.0111 ± 0.011
CAACCAGA	-0.189 ± 0.068
AGCCTTGG	-0.1206 ± 0.00055

Sequence	PBM E-score of 8-mer
AGAATACT	-0.3308 ± 0.0016
AACTAGTA	-0.177 ± 0.043
AAGTGTCC	0.281 ± 0.011
AACGAGTT	0.0308 ± 0.073
CAACTAAA	0.0404 ± 0.062
GCACTCTA	0.0446 ± 0.058
ATGTATGA	-0.231 ± 0.075
CCCATTGA	-0.104 ± 0.044
GCCATCAC	0.163 ± 0.011
CGAGGCTA	-0.0749 ± 0.035
CAAGTAAC	0.112 ± 0.017
AGTCAAAC	-0.0247 ± 0.068
GCAAACAA	-0.00852 ± 0.045
GGCGTCCA	-0.036 ± 0.015
CAACGTTG	0.229 ± 0.0073
CTCGTTAA	0.107 ± 0.035
AATTCGGA	-0.214 ± 0.057
ACGTTTAA	-0.206 ± 0.055
ATCTTTGC	0.035 ± 0.042
ACATAGGG	-0.102 ± 0.032
GCTTTACA	-0.0756 ± 0.045
GATAAACA	0.0427 ± 0.07
CGGATCAG	-0.176 ± 0.069
ACGGGTAT	0.0101 ± 0.015
CAACATCG	-0.0443 ± 0.013

Sequence	PBM E-score of 8-mer
GGCAACTA	0.00553 ± 0.027
CGTCCTAC	-0.299 ± 0.082
TCCTTACA	-0.00174 ± 0.052
ATAGTAAT	-0.137 ± 0.12
AGACCAGG	-0.0498 ± 0.065
AGTTACAA	0.0112 ± 0.023
ATCTGGAA	-0.123 ± 0.065
CCGTACAC	0.0864 ± 0.039
CAAGGGGG	-0.175 ± 0.099
AAGTGTGA	0.48967 ± 0.00029
GCCACGCA	-0.115 ± 0.077
ATGACGTG	0.142 ± 0.023
ACGAAGCC	-0.0268 ± 0.027
GACCACGA	-0.112 ± 0.01
CACGCGTA	0.197 ± 0.036
AATGCTGC	-0.103 ± 0.025
CTGTACCA	0.0194 ± 0.043
ACACTAAG	0.197 ± 0.046
TCTATGCA	-0.169 ± 0.015
GGAAAAAC	-0.0984 ± 0.077
GTGCTAGA	0.382 ± 0.0098
GCAGTGAC	0.0969 ± 0.043
GGCATTCA	-0.0793 ± 0.061
AACTAGAT	-0.258 ± 0.0078
GACGGCGC	0.193 ± 0.059

Sequence	PBM E-score of 8-mer
AGCGCAAA	0.201 ± 0.039
GAACATCC	-0.122 ± 0.02
CCCATACC	-0.0598 ± 0.027
CTGTCTCC	-0.101 ± 0.14
ACGCTCCT	0.0387 ± 0.003
TACAGGTA	-0.0543 ± 0.0011
AAATCACT	-0.0226 ± 0.039
AGCGCATC	-0.0205 ± 0.0078
TGCTGAAA	0.0466 ± 0.016
ATGCCATG	-0.0526 ± 0.026
CATCGCGG	0.196 ± 0.032
AGGAATAT	-0.142 ± 0.023
CGAGACGA	0.0752 ± 0.029
GGCGCCCC	-0.0463 ± 0.019
ATTAGGCA	0.0641 ± 0.032
AAACCGGC	-0.128 ± 0.049
GCTTGCAC	0.178 ± 0.012
CCTATCAC	0.311 ± 0.019
GGGAGAAA	-0.1242 ± 0.00032
GTGTATTA	-0.015 ± 0.035
CAGGTTGC	0.0654 ± 0.011
CCGGCTAG	0.00455 ± 0.013
